Source: PubChem BioAssay (NCI)
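Cells were grown in 96-well plates and exposed to each compound for 48 hours at five concentrations; endpoints were interpolated linearly between bracketing concentrations, or set to the highest concentration if not reached. At the GI50, growth is halved. TGI: total growth inhibition.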

These molecules were tested on NCI-H322M lung (assay: growth of human tumour cells (NCI), 48 h).

SMILES | GI50 [µM] | TGI [µM]
CNC(=O)c1cc(N2CCc3cc(NC(=O)Nc4ccc(N5CCN(C)CC5)c(C(F)(F)F)c4)ccc32)ccn1 | 4.08 | 8.75
COc1ccc([C@@H]2[C@@H](O)C(=O)N2c2cc(OC)c(OC)c(OC)c2)cc1F | 0.0984 | > 100
COc1cc(/C=C/C(=O)c2ccc(C)cc2)ccc1Oc1nc(NCCO)nc(N2CCOCC2)n1 | 6.24 | > 100
CCCC(=O)NC(c1cccnc1)c1ccc2c(C)ccnc2c1O (stereo unspecified) | 0.84 | > 100
CC1=C(C)C(=O)C(Nc2cccc(C(F)(F)F)c2)=C(Cl)C1=O | 22.7 | > 100
C[C@]12CC[C@H]3[C@@H](CC=C4C[C@@H](O)CC[C@@]43C)[C@@H]1CC[C@@H]2[C@](C)(O)CCc1cccnc1 | 5.87 | > 100
CC(=O)/C(N=Nc1ccc2oc(=O)ccc2c1)=C(\C)O | 3.54 | 17.8
CC1=C2C(=C[C@@](C)(COC(=O)c3ccc(S(=O)(=O)F)cc3)[C@@H]2OC(=O)c2ccc(S(=O)(=O)F)cc2)C(=O)[C@](C)(O)C12CC2 | 1.93 | 6.27
